Results on 172 sequences are retold here after paper PMC10668032.

The list shows a part of the results. At the low end of the ranking the order means little.

This assay deals with SIX1 homeodomain (reference allele) (UniProt Q15475). In words: universal protein binding microarray. The conditions noted are these: Universal all-10-mer PBM (8x60K, AMADID 030236), 300 nM GST-tagged protein, Alexa Fluor 488 anti-GST; buffer, salt, pH and temperature not stated; high values mean tight binding; most listed sequences are background and not binding sites; double strand, one strand shown.
Consider CAGATCGA, for which the binding signal stood at 0.277 E-score.

In the case of AGAACTCA, the binding signal was -0.0885 E-score.

Turning to CAGGGTAA, the binding signal was 0.0774 E-score.

With GGCTTGCA, the binding signal is -0.0878 E-score.

As to CGGGGCGA, the binding signal was 0.136 E-score.

AATGATAA: the binding signal worked out at 0.0479 E-score.

On to AGTATAGA, for which the binding signal worked out at 0.195 E-score.

On to GCTAACCA, for which the binding signal is -0.214 E-score.

For the sequence CCAGACAA, the binding signal was -0.166 E-score.

For ACACACTG, the binding signal was -0.0238 E-score.

Take GTACAAAC: the binding signal is -0.244 E-score.

CCAGAGGC: the binding signal was -0.216 E-score.

As to AGCGAGCG, the binding signal was -0.182 E-score.

As to AACCGGAC, the binding signal was -0.0533 E-score.

In the case of CAGCGGGG, the binding signal was 0.176 E-score.

CCTATTCG: the binding signal is -0.0766 E-score.

Turning to CCGAATGC, the binding signal is -0.235 E-score.

Regarding ACGTTCCA, the binding signal is -0.207 E-score.

Take CGAAAATC: the binding signal is -0.126 E-score.

As to AAATTTTG, the binding signal is -0.366 E-score.

As for ACGCACAG, the binding signal was found to be 0.0126 E-score.

As for CGCTTAGC, the binding signal is -0.26 E-score.

On to ACGCTATC, for which the binding signal was found to be 0.296 E-score.

Turning to GAGCAAAA, the binding signal is -0.335 E-score.

As to AGACTCGG, the binding signal was -0.0525 E-score.

Turning to AGCACTCC, the binding signal was 0.018 E-score.

ATAGGGGC: the binding signal was 0.228 E-score.

As for TTTATAAA, the binding signal was -0.0635 E-score.

In the case of ATGTGTGA, the binding signal is -0.0866 E-score.

Regarding GCCACCGA, the binding signal was -0.109 E-score.

As to GGGTGTTA, the binding signal was 0.282 E-score.

For TCAGTCAA, the binding signal is -0.0827 E-score.

On to ATAGCTAG, for which the binding signal was determined as 0.13 E-score.

Regarding CGCAAACG, the binding signal is -0.188 E-score.

ACGGGCTC: the binding signal was -0.14 E-score.

As for GACGGGGA, the binding signal stood at 0.133 E-score.

Turning to CCTCATTC, the binding signal is -0.138 E-score.

As for AGAAGGGC, the binding signal came to 0.0108 E-score.

Regarding ATCCAAAA, the binding signal is 0.151 E-score.

Turning to AAGTCACC, the binding signal is -0.34 E-score.

Turning to CGACTATC, the binding signal turned out to be 0.246 E-score.

In the case of CCCTGCGC, the binding signal is -0.225 E-score.

As for CCTTCTGA, the binding signal came to 0.0645 E-score.

As for GGCCACTA, the binding signal was -0.133 E-score.

Turning to CTTGTGCC, the binding signal was 0.0117 E-score.

For the sequence CCAAACCA, the binding signal was -0.109 E-score.

In the case of TCTGTTCA, the binding signal is -0.137 E-score.

Consider CCCGTCTC, for which the binding signal was determined as 0.205 E-score.

For AGAAAGCT, the binding signal is -0.234 E-score.

Regarding ACAGGCTG, the binding signal was -0.179 E-score.

As for CGTTTATA, the binding signal was 0.059 E-score.

Regarding GGACTGTA, the binding signal was -0.0181 E-score.

Turning to ACCAGGGG, the binding signal amounted to 0.111 E-score.

Regarding GTACCCGA, the binding signal was -0.0334 E-score.

As to AGATGAGC, the binding signal was -0.0122 E-score.

With GATACCGC, the binding signal was 0.461 E-score.

As to GCGCTAAA, the binding signal was -0.167 E-score.

In the case of CGACTGAC, the binding signal was -0.181 E-score.

Take ATAGGGCA: the binding signal came out at 0.0854 E-score.

For CTTATCGC, the binding signal came to 0.111 E-score.

On to CACTTAAG, for which the binding signal was -0.0738 E-score.

On to CGCAGGGC, for which the binding signal was 0.0944 E-score.

Take AAAGGGCG: the binding signal was -0.213 E-score.

For the sequence ATCGAGAT, the binding signal came to 0.324 E-score.

For the sequence GTTATAAC, the binding signal is -0.243 E-score.

In the case of GCTGAGCA, the binding signal was -0.105 E-score.

In the case of GCAGGTAC, the binding signal was -0.206 E-score.

For the sequence CCGCCGTC, the binding signal was -0.111 E-score.

In the case of CTTACCCC, the binding signal is 0.153 E-score.

ATGTTTTC: the binding signal is -0.23 E-score.

Turning to CCCCGATA, the binding signal came out at 0.347 E-score.

Consider AGTAGAAC, for which the binding signal is -0.0724 E-score.

As to AGATAAGA, the binding signal was 0.114 E-score.

As for ACATCATG, the binding signal was -0.0411 E-score.

As to ACGGGATG, the binding signal was 0.0307 E-score.

With ACGCCAAC, the binding signal is -0.0608 E-score.

CGCACACC: the binding signal came out at 0.11 E-score.

As to CGCTAGCC, the binding signal was -0.191 E-score.

Consider TGCCCTAA, for which the binding signal is -0.294 E-score.

As to AAGACGAC, the binding signal is 0.0916 E-score.

As to ACCGTCAT, the binding signal was -0.00137 E-score.

On to GAATAGTC, for which the binding signal was -0.111 E-score.

Take AACCATCG: the binding signal was -0.0607 E-score.

CGCTGCTC: the binding signal is -0.193 E-score.

Consider CGGTCGAC, for which the binding signal was -0.039 E-score.

Consider GCGGTTCA, for which the binding signal was -0.273 E-score.

With CCTCAGAG, the binding signal is -0.101 E-score.

Regarding CTCTTGTA, the binding signal was -0.0529 E-score.

For CCGTGTAC, the binding signal was 0.127 E-score.

In the case of CGATTTTA, the binding signal is -0.166 E-score.

In the case of CCCTGTGC, the binding signal is 0.0301 E-score.

On to AAAGAAAA, for which the binding signal was -0.296 E-score.

As to GGGATAGA, the binding signal was determined as 0.256 E-score.

On to CGAGAGTA, for which the binding signal was found to be 0.135 E-score.

For the sequence CTATCCAC, the binding signal is 0.219 E-score.

Consider CCAATGCG, for which the binding signal was found to be 0.0208 E-score.

ATTACACA: the binding signal is 0.0975 E-score.

With AGGTGCTG, the binding signal is -0.126 E-score.

With GATTCCCC, the binding signal turned out to be 0.0765 E-score.

Consider GAGCATGA, for which the binding signal is -0.186 E-score.

CCACTCAC: the binding signal is -0.0474 E-score.

As for TGGACACA, the binding signal is -0.0786 E-score.

For GAGGCGGC, the binding signal is -0.0904 E-score.

With GATAGAAA, the binding signal was 0.00081 E-score.

With TCCTTGCA, the binding signal was -0.157 E-score.

As to AATTTCAT, the binding signal is 0.0136 E-score.

For CGGTGTGC, the binding signal was determined as 0.11 E-score.

As to AAAAGTGT, the binding signal is -0.201 E-score.

With AGATTTAG, the binding signal turned out to be 0.0296 E-score.

Turning to AAGTTTCA, the binding signal is -0.134 E-score.

Take CTGGGAAC: the binding signal is -0.108 E-score.

Consider ACACTGCG, for which the binding signal is -0.0582 E-score.

Regarding AGGCCCCT, the binding signal was -0.0255 E-score.

With ATACGTTG, the binding signal is 0.19 E-score.

AATCATGT: the binding signal was determined as 0.0103 E-score.

As for AGCTATAC, the binding signal came out at 0.235 E-score.

In the case of CGACCCTA, the binding signal came out at 0.124 E-score.

Regarding ACACCTGC, the binding signal was determined as 0.318 E-score.

On to CCCAGCAG, for which the binding signal is -0.152 E-score.

Consider ATCTAACG, for which the binding signal is -0.0311 E-score.

Consider AAACGCTG, for which the binding signal is -0.402 E-score.

Turning to ATACATCA, the binding signal worked out at 0.196 E-score.

As for GGTCATAA, the binding signal was -0.0462 E-score.

As for GCGTGACC, the binding signal was -0.0448 E-score.

AACTCAAG: the binding signal is -0.277 E-score.

As for ACCAGCAT, the binding signal is 0.00743 E-score.

As to CATCAGGA, the binding signal is -0.0282 E-score.

Regarding CAGGAACG, the binding signal is -0.223 E-score.

Consider ATATCCAT, for which the binding signal came to 0.389 E-score.

In the case of CTTATAGA, the binding signal is -0.0243 E-score.

Consider CACGGCTC, for which the binding signal was 0.0483 E-score.

With GGGTCGAC, the binding signal was -0.000235 E-score.

For the sequence CTAATCCA, the binding signal came to 0.116 E-score.

Take ATTAGATA: the binding signal worked out at 0.314 E-score.

Turning to TCCCCAGA, the binding signal was found to be 0.0998 E-score.

In the case of AACTCTGT, the binding signal is -0.182 E-score.

Regarding CTGCATCC, the binding signal is -0.0343 E-score.

As to CGCTGTGA, the binding signal is 0.0124 E-score.

Regarding CACGGGAA, the binding signal was -0.0687 E-score.

With ACTAGGCG, the binding signal was determined as 0.0414 E-score.

With CAACCAGC, the binding signal was -0.113 E-score.

With ATGACAAT, the binding signal amounted to 0.0306 E-score.

As to ACTTTTGC, the binding signal was -0.112 E-score.

With CTGGTGGA, the binding signal was -0.102 E-score.

For the sequence CACCAAAA, the binding signal turned out to be 0.00779 E-score.

As to GGTCACGA, the binding signal was -0.146 E-score.

With AACTAGAC, the binding signal worked out at 0.0815 E-score.

In the case of CTGTTAAC, the binding signal is -0.00288 E-score.

For the sequence AGAGGCCT, the binding signal was -0.212 E-score.

For ACGAGCAC, the binding signal is -0.0772 E-score.

As to AACACCGC, the binding signal came to 0.293 E-score.

For AATCACGG, the binding signal was -0.145 E-score.

For AATTCAGC, the binding signal was -0.065 E-score.

Take AAGCTCCG: the binding signal was -0.203 E-score.

On to CTAGGGAA, for which the binding signal is -0.106 E-score.

On to AAAACTCG, for which the binding signal is -0.063 E-score.

On to AATACCGA, for which the binding signal was found to be 0.321 E-score.

For GAGATATC, the binding signal came out at 0.442 E-score.

AGGTGCTC: the binding signal was -0.289 E-score.

Consider GTTAGTTA, for which the binding signal was -0.182 E-score.

With CATAGAAG, the binding signal was -0.0626 E-score.

Consider AAAGACCG, for which the binding signal was -0.123 E-score.

Regarding AACAAGTT, the binding signal is -0.153 E-score.

As to ACTTCCCT, the binding signal was -0.134 E-score.

Regarding CAATGATG, the binding signal is -0.155 E-score.

Turning to CTACCCTA, the binding signal is -0.0466 E-score.

Turning to AGGGGGAT, the binding signal turned out to be 0.376 E-score.

In the case of GAGGCCAC, the binding signal was -0.172 E-score.

In the case of GAAGCTTC, the binding signal was -0.178 E-score.

For TGCTACAA, the binding signal amounted to 0.0649 E-score.

For the sequence AGCGTGAC, the binding signal is -0.145 E-score.

As for CGTACACG, the binding signal turned out to be 0.0605 E-score.
